In PubChem BioAssay (NCI):
“And” between values parts separate entries of the source, which are not always exact repeats. Equal entries are not always repeated.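 Growth conditions: 96-well plates. Treatment: test compound, 48 hours, 5 concentrations. Analysis: linear interpolation between bracketing concentrations; unreached endpoints set to highest concentration. GI50: concentration for 50% inhibition of growth. TGI: concentration producing complete growth inhibition.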

test system: NCI-H322M lung; experiment: inhibition of tumour cell growth, NCI panel, 48 h

Compound	TGI	GI50
O=c1oc2ccccc2c(O)c1C(c1cc(OCc2ccccc2)cc(OCc2ccccc2)c1)c1c(O)c2ccccc2oc1=O	33.6 µM	
COc1ccc(-c2cc(-c3cc(Cl)ccc3Cl)nc3[nH]c(-c4cc(F)c(Cl)cc4Cl)cc(=O)c23)cc1	67.7 µM	19.6 µM
Cc1cc(=O)cc2sc3c(C)cccc3nc1-2	> 100 µM	
C[C@@H]1CC[C@@H]2[C@@H]1[C@H](OC(=O)/C=C/c1ccccc1)[C@]1(c3ccccc3)C[C@@H](OC(=O)CO)[C@@]2(C)O1	31.5 µM	13.4 µM
Oc1ccccc1C(c1cc2c(cc1O)OCO2)N1CCOCC1 (stereo not drawn)	> 100 µM	
Cc1ccn2c3c(c(C(=O)O)c2c1)C(=O)c1ccccc1C3=O	4.25 µM	1.73 µM
CC1(C)N=C(N)N=C(N)N1c1ccc(CCCCc2ccc(S(=O)(=O)F)cc2)cc1	> 77.2 µM	2.72 µM
C=CCSC[C@H](NC(=O)COc1ccccc1)C(=O)NC(C(=O)OCc1ccc([N+](=O)[O-])cc1)=C(C)C	> 100 µM	
Cc1cc(-c2nc3ccccc3s2)ccc1NS(=O)(=O)O	> 100 µM	
C/C(=N\NC(=S)NC(C)C)c1nc2ncccc2[nH]1	> 100 µM	
CC12CC(c3ccccc3O1)C(C(=O)Nc1ccc(F)cc1)C(=O)N2 (stereo not drawn)	> 100 µM	
CCOC(=O)c1sc2nc(SC)nc3c2c1N=CN3c1ccc(Br)cc1	> 100 µM	
CC(CO)(CO)N=Cc1cc(I)cc(I)c1O	55.2 µM	
C[C@]12OC[C@H](c3ccccc3)N1C(=O)C1[C@H]2CC12SCCS2 (stereo partly drawn)	> 100 µM	
CCOC(=O)c1cc(C2(O)CCN(Cc3ccccc3)C2=O)c(-c2cc(C)no2)[nH]1 (stereo not drawn)	> 100 µM	
COC1(C)CC2N(C(=O)c3ccccc3)N=C(c3ccccc3)CC2(C)O1 (stereo not drawn)	> 100 µM	
Cc1c(Cl)cccc1NC(=O)C(=O)C1C(=O)CC(C)(C)CC1=O	> 100 µM	
COC1OC(=O)[C@H]2O[N+]([O-])=C(C)[C@@H]12 (stereo partly drawn)	> 100 µM	
COC(=O)C1OC(O[C@H]2CCC3(C)C(CCC4(C)C3CC=C3C5CC(C)(C)CCC5(C(=O)O)CC[C@]34C)C2(C)C)C(O)C(OC2OC(CO)C(O)C(O)C2O)C1O (stereo partly drawn)	15.1 µM	7.57 µM
N#Cc1c(N)[nH]c(=S)c(C#N)c1-c1cccc(Cl)c1	> 100 µM	
CSC1=NC=CCN1C	> 100 µM	
Fc1cccc(COc2ccc(Nc3ncncc3C#Cc3ccccc3)cc2Cl)c1	> 25 µM	> 25 µM
COC1(C(=O)N2Cc3nc(Cl)nc(N[C@H](C)c4cc(N)cc(C(F)(F)F)c4)c3C2)CCOCC1	> 100 µM	8.12 µM
O=C1CC2C=CC(O)C(C1)C2 (stereo not drawn)	> 100 µM	
CC1(C)CC2(C)CC1CC2O (stereo not drawn)	> 100 µM	

Compound	TGI	GI50
CN1CCN(CC#Cc2cccc(C(=O)c3cnn(-c4ccc(F)cc4)c3N)c2)CC1	> 25 µM	> 25 µM
Cc1[nH]c(/C=C2\C(=O)Nc3ccc(S(=O)(=O)Cc4c(Cl)cccc4Cl)cc32)c(C)c1C(=O)N1CCC[C@@H]1CN1CCCC1	11.6 µM	5.47 µM
Cc1cc2c(cc1C)[n+](=O)c(C(=O)C/C(=N/NC(=O)c1ccccc1O)C(=O)Nc1ccccc1C(C)C)c(C)n2[O-]	> 100 µM	
CC(=O)[CH-]C(=O)c1ccccc1.CC(=O)[CH-]C(=O)c1ccccc1.CCCCCCCCCCCCCCCCCC(=O)[O-].CCCCCCCCCCCCCCCCCC(=O)[O-].[Ti+4]	> 100 µM	39.3 µM
Brc1cccc(-c2cc(-c3ccc4c(c3)OCCO4)[nH]n2)c1	45.9 µM	2.39 µM
O=[Se]([O-])c1ccccc1.O=[Se]([O-])c1ccccc1.[OH3+].[OH3+].[Pt+2]	22.8 µM	3.49 µM
COc1cc(COC(=O)N[C@H](C(=O)O)C(C)(C)C)c([N+](=O)[O-])cc1OC	> 100 µM	
Cc1sc2nc3n(c(=O)c2c1C)N=CN(c1ccccc1)C3	> 100 µM	
COc1cc2oc(-c3ccc(O)cc3)c(OC3OC(C)C(O)C(O)C3O)c(=O)c2c(O)c1OC (stereo not drawn)	> 100 µM	
O=C(CCN1CCN(c2cnc3ccccc3n2)CC1)c1csc2ccccc12	> 100 µM	> 100 µM
Cc1ccccc1C1OC1C(=O)c1ccccc1N (stereo not drawn)	> 100 µM	
O=c1[nH]c2ccccc2cc1C(Cl)=C(Cl)Cl	> 100 µM	
CCC(=O)C(c1ccccc1)c1ccccn1 (stereo not drawn)	> 100 µM	
CSc1nc(SC)c2c(CN=[N+]=[N-])c(Br)n(Cc3ccccc3)c2n1	> 100 µM	
Cc1cc2nc3c4cc(Cl)ccc4n(CCN(C)C)c3nc2cc1C	5.15 µM	1.55 µM
C=CC1=CSNN1	> 100 µM	
Cc1ccc2c(C(C[N+](=O)[O-])c3cccs3)c(-c3ccccc3)[nH]c2c1 (stereo not drawn)	9.19 µM	3.63 µM
COC(=O)C(=O)CC(=O)CCn1ncc(Cl)c(Cl)c1=O	29.9 µM	
Nc1n[nH]c(=O)[nH]1	> 100 µM	
FC(F)(F)c1nc(-c2ccccc2Cl)[nH]c1C(F)(F)F	3.55 µM	
Cc1ccc(-c2c(N)nc(NC#N)nc2CCC(=O)Nc2ccccc2[N+](=O)[O-])cc1	> 100 µM	
COC(=O)C(c1[nH]nc2ccccc12)C(C(=O)OC)c1[nH]nc2ccccc12 (stereo not drawn)	> 100 µM	
CC(=O)c1ccc(Nc2cc(-c3ccccc3)nc3c(O)cccc23)cc1	96 µM	22.9 µM
N#CC1=C(N)OC2=C(CSc3ccccc32)C1c1ccc(Br)cc1 (stereo not drawn)	36.9 µM	
N#CC(=C1SCS1)[N+](=O)[O-]	> 100 µM	19.4 µM

Compound	TGI	GI50
CCCCN(CC)c1nc(C)nc2c1c(C)c(C)n2-c1c(C)cc(C)cc1C	34.1 µM	
Cc1c(Cl)ccc2c(=O)c3cccc(CC(=O)O)c3oc12	> 100 µM	
C#Cc1cnc(=O)n(C2CC(O)C(CO)O2)c1 (stereo not drawn)	> 100 µM	> 100 µM
c1sc(NC2=NCCO2)c2c1CCCC2	> 100 µM	
CC(C)=CCN1CC(C)C(=O)Nc2cc(Cl)ccc21 (stereo not drawn)	81.5 µM	
O=C1NC(c2ccc(O)cc2)C2CCC1C2 (stereo not drawn)	> 100 µM	
COc1cc2c3c(cccc3c1)C(=O)N(CCN1CCCC1)C2=O	7.46 µM	2.68 µM
Cc1c(/C=N\NC(=S)N2CCN(C(=S)N/N=C\c3c(C)n(C)n(-c4ccccc4)c3=O)CC2)c(=O)n(-c2ccccc2)n1C	> 100 µM	
CC(C)(C)OC(=O)NCCCCC(NC(=O)OCc1ccccc1)C(N)=O (stereo not drawn)	> 100 µM	
O=C1O[C@@H](c2ccccc2)C[C@@H]1CN1CCOCC1	> 100 µM	
CC(=O)Nc1cccc(-n2c(=O)n(C3CC3)c(=O)c3c(Nc4ccc(I)cc4F)n(C)c(=O)c(C)c32)c1	> 47.5 µM	< 0.0119 µM and 0.0507 µM
Cc1nn(-c2ccc(S(=O)(=O)[O-])cc2)c([O-])c1N=[N+](C)c1ccc(-c2ccc(N=Nc3ccc4c(S(=O)(=O)[O-])cc(S(=O)(=O)[O-])c(N)c4c3[O-])c([O-])c2)cc1[O-].[Cu+2].[Cu+2].[Na+]	> 100 µM	> 100 µM
CCOc1ccc(S(=O)(=O)/N=C2\C=C(SCC(=O)O)C(=O)c3ccccc32)cc1	35.6 µM	18.6 µM
C[N+](C)(C)CC(=O)N/N=c1\cc(C(=O)Nc2ccc(N=O)cc2C#N)oc2cc(O)ccc12	> 100 µM	
O=C(Nc1ccc(I)cc1C(=O)NCCO)c1cccs1	> 100 µM	
O=c1[nH]cnc2c(C3OC(CO)C(O)C3O)c[nH]c12 (stereo not drawn)	> 100 µM	
CCOP(=O)(OCC)[C@H](O)c1ccsc1	> 100 µM	
CC(C)C(Sc1nc(-c2ccccc2)c(-c2ccccc2)[nH]1)C(=O)NNC(=S)Nc1ccccc1 (stereo not drawn)	53.9 µM	
CCOC(=O)C1=C(C)Nc2ccccc2S1	> 100 µM	
O=c1c2c3ccccc3[nH]c2c2cccc3c2n1CCC3	> 100 µM	
O=C(/C(=C(/Br)I)c1ccccc1)c1ccccc1	42 µM	
O=C(Nc1nc2ccccc2s1)OCC(F)(F)F	> 100 µM	> 100 µM
CC(C)(C)OC(=O)NC(Cc1ccccc1)C(=O)OCN1C(=O)C2C3C=CC(C2C1=O)C1C2C(=O)N(COC(=O)C(Cc4ccccc4)NC(=O)OC(C)(C)C)C(=O)C2C31 (stereo not drawn)	> 100 µM	
COc1ccc(NC(=O)Nc2n[nH]c3ccccc23)cc1	> 100 µM	> 100 µM
COc1cc(C(=O)NC2c3ccccc3-c3ccccc32)c(N)cc1OCc1ccccc1	> 100 µM	> 100 µM

Compound	TGI	GI50
OCC1CCCC(n2cnc3c(=S)nc[nH]c32)O1 (stereo not drawn)	> 100 µM	
NC(CO)Cc1cnc[nH]1 (stereo not drawn)	> 100 µM	> 100 µM
CNC(=O)c1ccccc1CC1(O)c2ccccc2Oc2ccccc21	> 100 µM	34.6 µM
CSC1=Nc2ccccc2N(C)c2c1c(-c1ccccc1)nn2C	> 100 µM	
N#CCCN(c1ccc(C=Nc2cccc([N+](=O)[O-])c2)cc1)S(=O)(=O)c1ccccc1	> 100 µM	
Cc1ccccc1C(C#N)C(=O)C(=O)Nc1nc([N+](=O)[O-])cs1 (stereo not drawn)	> 100 µM	
O=c1[nH]c2nc3ccccc3c(=O)n2/c1=C/c1ccc(O)cc1	> 100 µM	
CC(=O)OCC1OC(N2C(=O)/C(=C\c3ccc(Cl)cc3)C(N)=Nc3ccccc32)C(OC(C)=O)C(OC(C)=O)C1OC(C)=O (stereo not drawn)	> 100 µM	
COc1ccc2c(c1)c1c(n2CCN2CCOCC2)-c2ccccc2CC1	> 100 µM	
O=C1/C(=C/c2ccc(F)cc2)CCOc2ccc([N+](=O)[O-])cc21	41.1 µM	21.7 µM
C=C1C(O)C2CCC(C)(C)C(=O)C2=C(CC(C)C)C12CC2 (stereo not drawn)	98.6 µM	32.1 µM
O=C(/C=C/c1ccc(Cl)cc1)c1ccc(Cl)cc1Cl	17.2 µM	8.23 µM
Cc1ccc2c(c1)nc(N)n[n+]2[O-]	> 100 µM	
N#C/C(=C\NC(=S)Nc1ccc(S(=O)(=O)Nc2ccccn2)cc1)C(N)=O	> 100 µM	
CCC(C)C1NC(=O)c2nc(oc2-c2ccccc2)-c2csc(n2)-c2csc(n2)-c2nc(oc2C)-c2coc(n2)CNC(=O)C(C(C)CC)NC1=O (stereo not drawn)	0.184 µM	0.0531 µM
O=C(NNc1nc2c(F)cccc2n2cccc12)c1cnccn1	> 69.1 µM	0.494 µM
CCOC(=O)C1(CC)CCCCC(=O)N1 (stereo not drawn)	> 100 µM	
CCOC(=O)C1=C(C)N(c2ccccc2)C2=C(C(=O)N(c3ccccc3)C2c2ccccc2)C1c1ccccc1 (stereo not drawn)	> 100 µM	
CCCCCCCCCCCCC(=O)OC(c1cnco1)c1nc(C(O)CC(O)C(O)C(C)O)co1 (stereo not drawn)	> 92.4 µM	1.03 µM
COC(=O)C1(Cc2ccccc2)Cc2cc3c(cc2C1=O)CCC3 (stereo not drawn)	11.7 µM	
O=c1cc(-c2cccc(F)c2)[nH]c2cc3c(cc12)OCO3	75 µM and > 100 µM	0.608 µM
Clc1nc(Cl)nc(NC23CC4CC(CC(C4)C2)C3)n1	50.3 µM	
CCOc1ccc(NC(=O)CC2Sc3ccccc3NC2=O)cc1 (stereo not drawn)	> 100 µM	
O=C(C#Cc1c[nH]c(=O)[nH]c1=O)c1ccccc1Cl	> 100 µM	
